Results are given in words; binding and its absence hold for the method and conditions named. For some assays here: In cells and extracts the contact can be indirect. Some results given as binding are weak or reduced against the parent protein; the word gives no strength.
What was measured:
[1] = biological target: Biotinylated synthetic Tat protein (amino acids 1–72) (HIV-1) (UniProt P04608); experiment: pull-down; biotinylated synthetic Tat immobilised on streptavidin-sepharose, incubated with 0.5 or 1.5 µl reticulocyte lysate with [35S]-RSK2 proteins, 10 min at 30°C, HB buffer with 120 mM NaCl; washes with 1 M KCl; autoradiography; only the target purified
[2] = biological target: GST-Tat lacking amino acids 1–36 (HIV-1) (UniProt P04608); experiment: pull-down; GST proteins immobilised on glutathione-sepharose, incubated with 200 ng human recombinant RSK2; binding buffer 20 mM Hepes pH 7.9, 1% Triton, 0.5% NP-40, 200 mM KCl; washes with 1 M KCl; western blot with α-RSK2; both purified
[3] = biological target: GST-Tat, only the N-terminal 35 amino acids of Tat (HIV-1) (UniProt P04608); experiment: as above
[4] = biological target: Endogenous RSK2 of Jurkat T cells (human (endogenous in Jurkat)) (UniProt P51812); experiment: co-IP; cellular extracts of Jurkat T cells infected with a lentiviral vector expressing Tat/FLAG from the HIV LTR, and of uninfected Jurkat cells; sepharose beads alone as control

The chains behind the UniProt entries cited, without tags or fusion partners. Where a name states a change or a piece, a line headed by the entry shows the natural chain unless it says otherwise. Residues count along the entry.
UniProt P04608: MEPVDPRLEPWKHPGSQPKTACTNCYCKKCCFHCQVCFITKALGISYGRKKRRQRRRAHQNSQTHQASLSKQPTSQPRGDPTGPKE
Biotinylated synthetic Tat protein (amino acids 1–72): residues 1-72 of P04608
GST-Tat, only the N-terminal 35 amino acids of Tat: residues 1-35 of P04608
GST-Tat lacking amino acids 1–36: residues 37-86 of P04608
UniProt P51812: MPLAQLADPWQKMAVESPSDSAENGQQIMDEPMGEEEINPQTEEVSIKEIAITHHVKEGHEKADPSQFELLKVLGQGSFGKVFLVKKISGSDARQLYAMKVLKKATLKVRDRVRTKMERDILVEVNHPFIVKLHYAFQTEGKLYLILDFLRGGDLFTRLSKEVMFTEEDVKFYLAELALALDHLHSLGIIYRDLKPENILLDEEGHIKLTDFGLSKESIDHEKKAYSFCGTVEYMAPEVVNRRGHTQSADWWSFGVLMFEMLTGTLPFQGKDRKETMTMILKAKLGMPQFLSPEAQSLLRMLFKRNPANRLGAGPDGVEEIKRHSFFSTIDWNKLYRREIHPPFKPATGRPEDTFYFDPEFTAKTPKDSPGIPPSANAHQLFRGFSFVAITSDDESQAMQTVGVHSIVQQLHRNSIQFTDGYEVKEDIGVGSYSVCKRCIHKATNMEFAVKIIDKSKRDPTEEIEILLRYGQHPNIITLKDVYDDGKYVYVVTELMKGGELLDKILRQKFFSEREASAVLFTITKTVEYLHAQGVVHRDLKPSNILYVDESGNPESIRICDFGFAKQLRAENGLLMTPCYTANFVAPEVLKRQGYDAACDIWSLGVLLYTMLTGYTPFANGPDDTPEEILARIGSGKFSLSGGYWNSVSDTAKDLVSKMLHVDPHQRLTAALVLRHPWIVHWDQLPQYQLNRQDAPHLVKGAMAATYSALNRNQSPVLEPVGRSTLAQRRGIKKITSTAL

For “In vitro synthesized radioactive RSK2 1–360 (from UniProt P51812 1-360) (domain or fragment)”, the binding [1] was “binds”.

In the case of “Full-length human recombinant RSK2 isolated from insect cells (from UniProt P51812 1-740) (enzyme)”, the binding [2] was “binds” and the binding [3] was “no binding”.

“In vitro synthesized radioactive full-length RSK2 (from UniProt P51812 1-740) (enzyme)” was tested, and the binding [1] was “binds”.

In the case of “Tat/FLAG expressed from the HIV LTR of an HIV-based lentiviral vector (from UniProt P04608 1-86)”, the binding [4] was “binds”.

From article PMC1764712, “Recruitment and Activation of RSK2 by HIV-1 Tat” (PLoS ONE, 2007)
